Some of the results follow.
Assays:
Assay in all cases: glycan array binding signal (z-score within array); higher = stronger binding
Conditions in all cases: glycan notation: IUPAC condensed, linker removed
[1] = target: Gal(a1-3)[Gal(a1-4)]Gal(b1-4)GlcNAc
Summary of the method: (§1)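 Glycan array binding is given as a within-array Z-score, which can be read as non-binding when negative. The arrays, 3228 of them, came from the Consortium for Functional Glycomics database and were retained only where the protein sequence was available. Z-scores were averaged across arrays of the same protein sequence at different concentrations or buffers and across linkers.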

[2] = target: Gal(a1-4)Gal(b1-3)GlcNAc(b1-2)Man(a1-3)[Gal(a1-4)Gal(b1-3)GlcNAc(b1-2)Man(a1-6)]Man(b1-4)GlcNAc(b1-4)GlcNAc
Summary of the method: as §1

[3] = target: Gal(a1-4)Gal(b1-4)Glc
Summary of the method: as §1

[4] = target: Gal(a1-4)Gal(b1-4)GlcNAc
Summary of the method: as §1

[5] = target: Gal(a1-4)Gal(b1-4)GlcNAc(b1-2)Man(a1-3)[Gal(a1-4)Gal(b1-4)GlcNAc(b1-2)Man(a1-6)]Man(b1-4)GlcNAc(b1-4)GlcNAc
Summary of the method: as §1

[6] = target: Gal(a1-4)Gal(b1-4)GlcNAc(b1-3)Gal(b1-4)Glc
Summary of the method: as §1

[7] = target: Gal(a1-4)GlcNAc
Summary of the method: as §1

[8] = target: Gal(a1-6)Glc
Summary of the method: as §1

[9] = target: Gal(b1-2)Gal
Summary of the method: as §1

[10] = target: Gal(b1-3)Gal
Summary of the method: as §1

[11] = target: Gal(b1-3)Gal(b1-4)GlcNAc
Summary of the method: as §1

[12] = target: Gal(b1-3)GalNAc
Summary of the method: as §1

[13] = target: Gal(b1-3)GalNAc(a1-3)[Fuc(a1-2)]Gal(b1-4)Glc
Summary of the method: as §1

[14] = target: Gal(b1-3)GalNAc(a1-3)[Fuc(a1-2)]Gal(b1-4)GlcNAc
Summary of the method: as §1

[15] = target: Gal(b1-3)GalNAc(b1-3)Gal
Summary of the method: as §1

[16] = target: Gal(b1-3)GalNAc(b1-3)Gal(a1-4)Gal(b1-4)Glc
Summary of the method: as §1

[17] = target: Gal(b1-3)GalNAc(b1-4)Gal(b1-4)Glc
Summary of the method: as §1

[18] = target: Gal(b1-3)GalNAc(b1-4)[Neu5Ac(a2-3)]Gal(b1-4)Glc
Summary of the method: as §1

[19] = target: Gal(b1-3)GlcNAc
Summary of the method: as §1

[20] = target: Gal(b1-3)GlcNAc(a1-3)Gal(b1-4)GlcNAc
Summary of the method: as §1

[21] = target: Gal(b1-3)GlcNAc(a1-6)Gal(b1-4)GlcNAc
Summary of the method: as §1

[22] = target: Gal(b1-3)GlcNAc(b1-2)Man
Summary of the method: as §1

[23] = target: Gal(b1-3)GlcNAc(b1-2)Man(a1-3)[Gal(b1-3)GlcNAc(b1-2)Man(a1-6)]Man(b1-4)GlcNAc(b1-4)GlcNAc
Summary of the method: as §1

[24] = target: Gal(b1-3)GlcNAc(b1-2)Man(a1-3)[Gal(b1-3)GlcNAc(b1-2)Man(a1-6)]Man(b1-4)GlcNAc(b1-4)[Fuc(a1-6)]GlcNAc
Summary of the method: as §1

[25] = target: Gal(b1-3)GlcNAc(b1-2)Man(a1-3)[GlcNAc(b1-4)][Gal(b1-3)GlcNAc(b1-2)Man(a1-6)]Man(b1-4)GlcNAc(b1-4)GlcNAc
Summary of the method: as §1

[26] = target: Gal(b1-3)GlcNAc(b1-2)[Gal(b1-3)GlcNAc(b1-6)]Man(a1-6)[Gal(b1-3)GlcNAc(b1-2)Man(a1-3)]Man(b1-4)GlcNAc(b1-4)GlcNAc
Summary of the method: as §1

[27] = target: Gal(b1-3)GlcNAc(b1-3)Gal(b1-3)GlcNAc
Summary of the method: as §1

[28] = target: Gal(b1-3)GlcNAc(b1-3)Gal(b1-4)Glc
Summary of the method: as §1

[29] = target: Gal(b1-3)GlcNAc(b1-3)Gal(b1-4)GlcNAc
Summary of the method: as §1

[30] = target: Gal(b1-3)GlcNAc(b1-3)Gal(b1-4)GlcNAc(b1-2)Man(a1-3)[Gal(b1-3)GlcNAc(b1-3)Gal(b1-4)GlcNAc(b1-2)Man(a1-6)]Man(b1-4)GlcNAc(b1-4)GlcNAc
Summary of the method: as §1

[31] = target: Gal(b1-3)GlcNAc(b1-3)Gal(b1-4)GlcNAc(b1-2)[Gal(b1-3)GlcNAc(b1-3)Gal(b1-4)GlcNAc(b1-6)]Man(a1-6)[Gal(b1-3)GlcNAc(b1-3)Gal(b1-4)GlcNAc(b1-2)Man(a1-3)]Man(b1-4)GlcNAc(b1-4)[Fuc(a1-6)]GlcNAc
Summary of the method: as §1

[32] = target: Gal(b1-3)GlcNAc(b1-3)Gal(b1-4)GlcNAc(b1-3)Gal(b1-4)GlcNAc(b1-2)[Gal(b1-3)GlcNAc(b1-3)Gal(b1-4)GlcNAc(b1-3)Gal(b1-4)GlcNAc(b1-6)]Man(a1-6)[Gal(b1-3)GlcNAc(b1-3)Gal(b1-4)GlcNAc(b1-3)Gal(b1-4)GlcNAc(b1-2)Man(a1-3)]Man(b1-4)GlcNAc(b1-4)[Fuc(a1-6)]GlcNAc
Summary of the method: as §1

[33] = target: Gal(b1-3)GlcNAc(b1-3)Gal(b1-4)GlcNAc(b1-6)[Gal(b1-3)GlcNAc(b1-3)]Gal(b1-4)Glc
Summary of the method: as §1

[34] = target: Gal(b1-3)GlcNAc(b1-3)Gal(b1-4)[Fuc(a1-3)]GlcNAc
Summary of the method: as §1

[35] = target: Gal(b1-3)GlcNAc(b1-3)Gal(b1-4)[Fuc(a1-3)]GlcNAc(b1-6)[Gal(b1-3)GlcNAc(b1-3)]Gal(b1-4)Glc
Summary of the method: as §1

[36] = target: Gal(b1-3)GlcNAc(b1-3)GalNAc
Summary of the method: as §1

[37] = target: Gal(b1-3)GlcNAc(b1-6)Gal(b1-4)GlcNAc
Summary of the method: as §1

[38] = target: Gal(b1-3)GlcNAc(b1-6)GalNAc
Summary of the method: as §1

B1: PX9961J-bvu-499-24-499 (Bacteroides vulgatus) (protein)
chain: LNTDPSTAVPSDDAIKNIDDAQVALNGIYRLASAHSYYGDNYLYYADCRGEDVQARINKGAGRRVSPYYFFDVTADDNFNITLVWNQPYKVIHQANSLIEKLDAGNAGNARPEEVARIKSEALAMRGLALFDLTRLFGMPYTLDNGASLGVPIEIQTTLEDHAPERNTVAQCYEQVLKDLNDALGGLTKEKHDAYMNYWSVKALLSRVYLYMNDNENALKCAEEVINDNGGIYRLFTHDEYPSVWGKDFNSESLFEFYFTMSEPSGGSGGEGAPMVYADNVKDWNNLILTKAYLDLLNEDPEDVRHVFPHLPENAVADTLPVAAKGQPKYLIKYPGKSGSVTDAVSTVNPQDNDLCILRLSEVYLNAAEAAFKIGNTEKALTYLNAIVTRANPAKSVTSADLSLERILKERRKELVGEGHAFFDYMRNGKSVDRSGGWHLTMPEDARVIAPSDPRVALPIPQTEIDANPNIVQNPR
glycan array binding signal (z-score) [1]: 3.12 | glycan array binding signal (z-score) [2]: -0.024 | glycan array binding signal (z-score) [3]: -0.223 | glycan array binding signal (z-score) [4]: -0.357 | glycan array binding signal (z-score) [5]: 0.648 | glycan array binding signal (z-score) [6]: 0.194 | glycan array binding signal (z-score) [7]: -0.103 | glycan array binding signal (z-score) [8]: -0.161 | glycan array binding signal (z-score) [9]: 0.084 | glycan array binding signal (z-score) [10]: -0.099 | glycan array binding signal (z-score) [11]: -0.194 | glycan array binding signal (z-score) [12]: 0.218 | glycan array binding signal (z-score) [13]: -0.211 | glycan array binding signal (z-score) [14]: -0.492 | glycan array binding signal (z-score) [15]: -0.258 | glycan array binding signal (z-score) [16]: 0.285 | glycan array binding signal (z-score) [17]: 0.794 | glycan array binding signal (z-score) [18]: -1.14 | glycan array binding signal (z-score) [19]: 0.304 | glycan array binding signal (z-score) [20]: -0.6 | glycan array binding signal (z-score) [21]: -0.184 | glycan array binding signal (z-score) [22]: -0.59 | glycan array binding signal (z-score) [23]: 0.114 | glycan array binding signal (z-score) [24]: 0.752 | glycan array binding signal (z-score) [25]: 2.45 | glycan array binding signal (z-score) [26]: 0.349 | glycan array binding signal (z-score) [27]: -0.401 | glycan array binding signal (z-score) [28]: -0.361 | glycan array binding signal (z-score) [29]: -0.482 | glycan array binding signal (z-score) [30]: 0.105 | glycan array binding signal (z-score) [31]: 0.35 | glycan array binding signal (z-score) [32]: 0.403 | glycan array binding signal (z-score) [33]: -0.514 | glycan array binding signal (z-score) [34]: -0.275 | glycan array binding signal (z-score) [35]: -0.458 | glycan array binding signal (z-score) [36]: -0.546 | glycan array binding signal (z-score) [37]: -0.391 | glycan array binding signal (z-score) [38]: -0.402

From the supplement of paper PMC8728848
